# Several values for one entry are separate records, joined by “and”; a condition that tells them apart may be missing. Equal values may be shown once. The campaign covered roughly 420,000 compounds. About 50,000 (12%) were called active. The inconclusive results got no clear call from the source; some entries with a clear call stand among them for comparison. The call rests on the fitted dose curve; in most records, active means well fitted inhibition curve with a large enough effect; inconclusive means small, poorly fitted or top-dose-only effect; inactive means flat fitted curve, though single readings scatter. Potencies beside an inconclusive call are fits to weak or partial responses and may not hold up.
# Assay: qHTS for Inhibitors of human tyrosyl-DNA phosphodiesterase 1 (TDP1): qHTS in cells in presence of CPT; further: nearly all actives have a fitted effect of over 55% in size
# Conditions: chicken DT40 Tdp1-/-;hTDP1 cells + 20 nM CPT, ATP luminescence, 48 h; activity change, negative = growth inhibition: at 46.2 µM (top of the series)
# Outline: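 Chicken DT40 Tdp1-/- cells complemented with human TDP1, 400 cells/well, exposed to compounds plus 20 nM camptothecin for at least 48 h at 37 C; viability read as ATP content by CellTiter-Glo luminescence.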
# On the % scale 0 is the no-effect control and ±100 the full control effect; potency means the concentration at half of the fitted maximal effect; tags describe the fitted curve by direction and shape.
Compound,"activity change, negative = growth inhibition",Potency
COc1ccc(-n2c(=O)c(CCc3ccccc3)nc3cnc(N4CCOCC4)nc32)cc1,inactive: 8.5%,
CCN1C(=O)[C@H]2[C@@H](c3ccc(-c4ccc(OC)cc4)c(OC)c3)N[C@@](Cc3ccccc3)(C(=O)OC)[C@H]2C1=O,,"inconclusive: 18.4 µM [inhibitor, single point]"
CC(Sc1nnc2ccc3ccccc3n12)C(=O)Nc1ccc(Cl)cc1 (centres undefined),,active: 14.6 µM
COc1ccc(C(CNC(=O)Cc2ccccc2)N2CCCCC2)cc1 (centres undefined),,"inconclusive: 0.731 µM [inhibitor, full curve, poor fit]"
CC(C)(C)S(=O)N1Cc2cc(C(=O)Nc3ccc(-c4ccccc4)cc3)nc(-c3cccc(-c4cc5ccccc5o4)c3)c2[C@@H]1CCO (some centres undefined),,"inconclusive: 29.1 µM [inhibitor, single point]"
COc1ccc(NC(=O)/C(C#N)=C\c2ccc(-c3cccc(C(=O)O)c3C)o2)cc1,,"inconclusive: 4.61 µM [inhibitor, single point]"
COc1ccc(CNC(=O)N2CCN(c3ccccc3)CC2)cc1,inactive: 4.03%,
CCn1c2ccccc2c2cc(NC(=O)CNC)ccc21,inactive: 1.65%,
CC(C)c1cccc(-c2ccc3c(c2)S(=O)(=O)c2cccc(C(=O)NCc4ccccc4)c2C3=O)c1,,"inconclusive: 29.1 µM [inhibitor, single point]"
CCOC(=O)c1cc(S(=O)(=O)N2CCN(c3ccccc3OC)CC2)cn1C,inactive: -9.61%,
CCCc1cc(=O)[nH]c(Nc2cc(C)ccc2OC)n1,inactive: -10.8%,
CC(C)(C)NC(=O)Cn1c(=O)n(CC(=O)NC(C)(C)C)c2ccccc21,inactive: 6.72%,
CCc1ccc(NC(=O)CC2C(=O)N(c3cccc(OC)c3)C(=O)N2Cc2ccc(F)cc2)cc1 (centres undefined),,active: 23.1 µM
CCN1CCN(c2ccc(S(=O)(=O)N3CCOCC3)cc2NC(=O)c2cc(Cl)nc3ccccc23)CC1,,"inconclusive: 29.1 µM [inhibitor, single point]"
O=C(Nc1cccc(S(=O)(=O)N2CCCCC2)c1)c1cc(=O)[nH]c2ccccc12,,active: 23.1 µM
O=S(=O)(c1ccc(N2CC=C(c3ccccc3)CC2)nc1)N1CCCC1,,active: 16.4 µM
CCN1CC(C)C(O)(c2ccccc2)CC1C (centres undefined),,"inconclusive: 13 µM [inhibitor, partial curve]"
Cc1c(NC(=O)c2cnn3c(C(F)(F)F)cc(-c4ccco4)nc23)c(=O)n(-c2ccccc2)n1C,,"inconclusive: 11.6 µM [inhibitor, partial curve]"
Cc1ccc(NC(=O)Cc2ncc(C(F)(F)F)cc2Cl)cc1Cl,,"inconclusive: 23.1 µM [inhibitor, single point]"
Cc1cccc(OCC2=N/C(=C\N(C)C)C(=O)O2)c1,,"inconclusive: 20.6 µM [inhibitor, single point]"
Cc1ccc2c(c1)c(C)c(C)n2CC(O)Cn1nc(C)cc1C (centres undefined),,"inconclusive: 29.1 µM [inhibitor, single point]"
CCN1CCCC1CNCc1cc2c(OC)c(OC)c(OC)cc2nc1N(C)C (centres undefined),inactive: -6.87% [at 9.04 µM],

Compound,"activity change, negative = growth inhibition",Potency
c1ccc2sc(Sc3ncnc4sccc34)nc2c1,,active: 5.8 µM
Cc1nc2ccn(Cc3ccccc3)c(=O)c2cc1C(=O)N1CCN(c2ccc(F)cc2)CC1,,"inconclusive: 25.9 µM [inhibitor, single point] and inconclusive: 11.6 µM [inhibitor, partial curve]"
Cc1cc(C)cc(C(=O)N2CCN(c3ccccn3)CC2)c1,inactive: 6.34%,
COc1ccccc1NC(=O)Cn1c(SCC(=O)Nc2ccc(F)cc2)nc2ccccc21,,"inconclusive: 29.1 µM [inhibitor, single point]"
N#Cc1ccccc1Sc1ccccc1C(=O)NCC(c1ccco1)N1CCCCC1 (centres undefined),,"inconclusive: 16.4 µM [inhibitor, single point]"
O=S(=O)(c1ccc(SCCOc2ccccc2)nc1)N1CCCC1,,"inconclusive: 29.1 µM [inhibitor, single point]"
Cc1cc(NC(=O)n2ncc3c(C)cccc32)ccc1Br,,"inconclusive: 29.1 µM [inhibitor, single point]"
CCc1ccc(NC(=O)CC2C(=O)N(c3cccc(C)c3)C(=O)N2Cc2ccc(F)cc2)cc1 (centres undefined),,"inconclusive: 29.1 µM [inhibitor, single point]"
CCOC(=O)N1CCN(C(=O)COC(=O)c2ccccc2NCCO)CC1,inactive: 27.4%,
CCOC(=O)c1cnc2cc(-c3ccc(OCC)cc3)nn2c1-c1ccccc1,,active: 14.6 µM
CC(=O)n1cc([C@H]2C=C(C(=O)N3CCN(Cc4ccc5c(c4)OCO5)CC3)O[C@@H](OCCCCO)C2)c2ccccc21,,active: 16.4 µM
COc1ccc(S(=O)(=O)Nc2cc3c4c(c2)CC(=O)N4CCC3)cc1OC,inactive: -21.5%,
CN(NC(=O)CN1C(=O)c2ccccc2C1=O)C1=NS(=O)(=O)c2ccccc21,inactive: 2.86%,
COc1ccccc1CNC(=O)c1ccccc1NC(=O)C1=C(C)OCCS1,,active: 20.6 µM
COCCc1nn2c(=O)cc(COC(=O)C(c3ccccc3)c3ccccc3)nc2s1,,"inconclusive: 29.1 µM [inhibitor, single point]"
O=C(NC1CCCCCC1)C1CCN(C(=O)c2ccc(Cl)cc2)CC1,,"inconclusive: 14.6 µM [inhibitor, single point]"
CCOc1ccc(Br)cc1S(=O)(=O)NCC(c1ccc(OC)cc1)N1CCOCC1 (centres undefined),,"inconclusive: 25.9 µM [inhibitor, single point]"
NC(=O)c1ccc(Cn2c(C(=O)c3cc(Cl)c(N)c(Cl)c3)c3ccccc3[n+]2[O-])cc1,,"inconclusive: 29.1 µM [inhibitor, single point]"
COc1ccc(/C=N/Nc2cc(N(C)C)nc(N(C)C)n2)cc1,,"inconclusive: 29.1 µM [inhibitor, single point]"
CCc1nc(CN2CCOc3ccc(C(O)C4CCCCC4)cc3C2)c(C)[nH]1 (centres undefined),,"inconclusive: 29.1 µM [inhibitor, single point]"
O=C1COC(c2ccccc2)=CN1Cc1ccccc1,inactive: -17.3%,
O=C(NCc1ccccc1)c1cccnc1Sc1ccccc1,inactive: -11.3%,

# From PubChem BioAssay AID686979 (National Center for Advancing Translational Sciences (NCATS), 2013)
